The labels stand for the following.
B1: GPR68, Q15743 (parent)
chain: MGNITADNSSMSCTIDHTIHQTLAPVVYVTVLVVGFPANCLSLYFGYLQIKARNELGVYLCNLTVADLFYICSLPFWLQYVLQHDNWSHGDLSCQVCGILLYENIYISVGFLCCISVDRYLAVAHPFRFHQFRTLKAAVGVSVVIWAKELLTSIYFLMHEEVIEDENQHRVCFEHYPIQAWQRAINYYRFLVGFLFPICLLLASYQGILRAVRRSHGTQKSRKDQIQRLVLSTVVIFLACFLPYHVLLLVRSVWEASCDFAKGVFNAYHFSLLLTSFNCVADPVLYCFVSETTHRDLARLRGACLAFLTCSRTGRAREAYPLGAPEASGKSGAQGEEPELLTKLHPAFQTPNSPGSGGFPTGRLA

Scores whose standard error is large were omitted. Not listed are two conditions whose scores span a narrow range. Names with del lack the residues named; names with ins carry added residues between the positions named. For some assays here: The concentration of ogerin is not given here.

In data set [1] the parent is B1. The data set can be described thus: cAMP reporter score (Enrich2 score, wild type = 0); higher = more signal; HEK293T, FACS bins.
Data set [2] covers variants of B1. The data set can be described thus: surface expression score (Enrich2 score, wild type = 0); higher = more signal; HEK293T, FACS bins.

For the variant MGNITADNSSMSCTIDHTIHQTLAPVVYVTVLVVGFPANCLSLYFGYLQIKARNELGVYLCNLTVADLFYICSLPFWLQYVLQHDNWSHGDLSCQVCGILLYENIYISVGFLCCISVDRYLAVAHPFRFHQFRTLKAAVGVSVVIWAKELLTSIYFLMHEEVIEDENQHRVCFEHYPIQAWQRAINYYRFLVGFLFPICLLLASYQGILRAVRRSHGTQKSRKDQIQRLVLSTVVIFLACFLPYHVLLLVRSVWEASCDFAKGVFNAYHFSLLLTSFNCVADPVLYCFVSETTHRDLARLRGACLAFLTCSRTGRAREAYPLGGPEASGKSGAQGEEPELLTKLHPAFQTPNSPGSGGFPTGRLA [A324G], the cAMP reporter score in data set [1] (pH 5.5) was 1; in data set [1] (pH 6), -0.468; in data set [1] (pH 6, modulator: ogerin), 1.24; in data set [1] (pH 6.5, modulator: ogerin), 1.28. The surface expression score in data set [2] was 1.21.
The like results for MGNITADNSSMSCTIDHTIHQTLAPVVYVTVLVVGFPANCLSLYFGYLQIKARNELGVYLCNLTVADLFYICSLPFWLQYVLQHDNWSHGDLSCQVCGILLYENIYISVGFLCCISVDRYLAVAHPFRFHQFRTLKAAVGVSVVIWAKELLTSIYFLMHEEVIEDENQHRVCFEHYPIQAWQRAINYYRFLVGFLFPICLLLASYQGILRAVRRSHGTQKSRKDQIQRLVLSTVVIFLACFLPYHVLLLVRSVWEASCDFAKGVFNAYHFSLLLTSFNCVADPVLYCFVSETTHRDLARLRGACLAFLTCSRTGRAREAYPLGHPEASGKSGAQGEEPELLTKLHPAFQTPNSPGSGGFPTGRLA [A324H] were, in that order, 0.238, 0.928, 0.793, -0.531 and -0.098.
On to MGNITADNSSMSCTIDHTIHQTLAPVVYVTVLVVGFPANCLSLYFGYLQIKARNELGVYLCNLTVADLFYICSLPFWLQYVLQHDNWSHGDLSCQVCGILLYENIYISVGFLCCISVDRYLAVAHPFRFHQFRTLKAAVGVSVVIWAKELLTSIYFLMHEEVIEDENQHRVCFEHYPIQAWQRAINYYRFLVGFLFPICLLLASYQGILRAVRRSHGTQKSRKDQIQRLVLSTVVIFLACFLPYHVLLLVRSVWEASCDFAKGVFNAYHFSLLLTSFNCVADPVLYCFVSETTHRDLARLRGACLAFLTCSRTGRAREAYPLGEPEASGKSGAQGEEPELLTKLHPAFQTPNSPGSGGFPTGRLA [A324E], for which the cAMP reporter score was 0.379 in data set [1] (pH 5.5); 0.09 in data set [1] (pH 6); 0.492 in data set [1] (pH 6, modulator: ogerin); -0.312 in data set [1] (pH 6.5, modulator: ogerin). Besides, in data set [2], the surface expression score amounted to 0.307.
With MGNITADNSSMSCTIDHTIHQTLAPVVYVTVLVVGFPANCLSLYFGYLQIKARNELGVYLCNLTVADLFYICSLPFWLQYVLQHDNWSHGDLSCQVCGILLYENIYISVGFLCCISVDRYLAVAHPFRFHQFRTLKAAVGVSVVIWAKELLTSIYFLMHEEVIEDENQHRVCFEHYPIQAWQRAINYYRFLVGFLFPICLLLASYQGILRAVRRSHGTQKSRKDQIQRLVLSTVVIFLACFLPYHVLLLVRSVWEASCDFAKGVFNAYHFSLLLTSFNCVADPVLYCFVSETTHRDLARLRGACLAFLTCSRTGRAREAYPLGFPEASGKSGAQGEEPELLTKLHPAFQTPNSPGSGGFPTGRLA [A324F], the cAMP reporter score in data set [1] (pH 5.5) is 0.718; in data set [1] (pH 6), -0.032; in data set [1] (pH 6, modulator: ogerin), 0.593; in data set [1] (pH 6.5, modulator: ogerin), 0.088. For the same variant, the surface expression score in data set [2] was -0.143.

(Values after the GPR68 mutational scans of Howard et al. (2025).)
